This passage reports IC50 results from patent US11685745B2, “Substituted benzoxazole and benzofuran compounds as PDE7 inhibitors” (Dart NeuroScience, LLC, priority 2017, dated 2023).

Each structure is given as a SMILES string.

This assay deals with N-terminal truncated recombinant human PDE7B enzyme (Homo sapiens (Human), UniProt Q9NP56). In words: biochemical.
Broadly, the IC50 is the concentration needed to halve the response being measured. Regarding `CCO[C@@H]1CCN(C(=O)c2nc3cc(Cl)c4c(c3o2)C2(CCCCC2)NC(=O)N4)C1` [Example 187, 5-Chloro-2-[(3R)-3-ethoxypyrrolidine-1-carbonyl]-7,8-dihydro-6H-spiro[[1,3]oxazolo[5,4-f]quinazoline-9,1′-cyclohexane]-7-one], the concentration for half-maximal inhibition (IC50) lay in the range of 10 to 100 nM.

For `CN(C)C(=O)CN(C)C(=O)c1nc2cc(Cl)c3c(c2o1)C1(CCCCC1)NC(=O)N3` [Example 188, 2-{1-5-Chloro-7-oxo-7,8-dihydro-6H-spiro[[1,3]oxazolo[5,4-f]quinazoline-9,1′-cyclohexane]-2-yl-N-methylformamido}-N,N-dimethylacetamide], the half-maximal inhibitory concentration (IC50) was in the range of 10 to 100 nM.

As to `COC[C@@H]1CCCN1C(=O)c1nc2cc(Cl)c3c(c2o1)C1(CCCCC1)NC(=O)N3` [Example 190, 5-Chloro-2-[(2S)-2-(methoxymethyl)pyrrolidine-1-carbonyl]-7,8-dihydro-6H-spiro[[1,3]oxazolo[5,4-f]quinazoline-9,1′-cyclohexane]-7-one], the 50% inhibitory concentration (IC50) was 10 to 100 nM. The result for `COC(=O)CN(C)C(=O)c1nc2cc(Cl)c3c(c2o1)C1(CCCCC1)NC(=O)N3` [Example 191, methyl 2-{1-5-chloro-7-oxo-7,8-dihydro-6H-spiro[[1,3]oxazolo[5,4-f]quinazoline-9,1′-cyclohexane]-2-yl-N-methylformamido}acetate] reads 10 to 100 nM.

Take `CNCCN(C)C(=O)c1nc2cc(Cl)c3c(c2o1)C1(CCCCC1)NC(=O)N3` [Example 192, 5-Chloro-N-methyl-N-[2-(methylamino)ethyl]-7-oxo-7,8-dihydro-6H-spiro[[1,3]oxazolo[5,4-f]quinazoline-9,1′-cyclohexane]-2-carboxamide]: the IC50 lay in the range of 100 to 1000 nM. In the case of `CN(C)CCN(C)C(=O)c1nc2cc(Cl)c3c(c2o1)C1(CCCCC1)NC(=O)N3` [Example 193, 5-Chloro-N-[2-(dimethylamino)ethyl]-N-methyl-7-oxo-7,8-dihydro-6H-spiro[[1,3]oxazolo[5,4-f]quinazoline-9,1′-cyclohexane]-2-carboxamide], the IC50 was in the range of 100 to 1000 nM. The result for `CN(C)C1CCN(C(=O)c2nc3cc(Cl)c4c(c3o2)C2(CCCCC2)NC(=O)N4)CC1` [Example 194, 5-Chloro-2-[4-(dimethylamino)piperidine-1-carbonyl]-7,8-dihydro-6H-spiro[[1,3]oxazolo[5,4-f]quinazoline-9,1′-cyclohexane]-7-one] reads 10 to 100 nM; that for `O=C1Nc2c(Cl)cc3nc(C(=O)N4CCN(CC(F)(F)F)CC4)oc3c2C2(CCCCC2)N1` [Example 195, 5-Chloro-2-[4-(2,2,2-trifluoroethyl)piperazine-1-carbonyl]-7,8-dihydro-6H-spiro[[1,3]oxazolo[5,4-f]quinazoline-9,1′-cyclohexane]-7-one], 10 to 100 nM. The result for `COCCN1CCN(C(=O)c2nc3cc(Cl)c4c(c3o2)C2(CCCCC2)NC(=O)N4)CC1` [Example 196, 5-Chloro-2-[4-(2-methoxyethyl)piperazine-1-carbonyl]-7,8-dihydro-6H-spiro[[1,3]oxazolo[5,4-f]quinazoline-9,1′-cyclohexane]-7-one] reads 10 to 100 nM; that for `O=C1Nc2c(Cl)cc3nc(C(=O)N4CCN5CCC[C@@H]5C4)oc3c2C2(CCCCC2)N1` [Example 197, 2-[(8aR)-octahydropyrrolo[1,2-a]piperazine-2-carbonyl]-5-chloro-7,8-dihydro-6H-spiro[[1,3]oxazolo[5,4-f]quinazoline-9,1′-cyclohexane]-7-one], 10 to 100 nM; that for `CN(C(=O)c1nc2cc(Cl)c3c(c2o1)C1(CCCCC1)NC(=O)N3)C1CCOCC1` [Example 198, 5-Chloro-N-methyl-N-(oxan-4-yl)-7-oxo-7,8-dihydro-6H-spiro[[1,3]oxazolo[5,4-f]quinazoline-9,1′-cyclohexane]-2-carboxamide], 10 to 100 nM.

On to `COC1CCN(C(=O)c2nc3cc(Cl)c4c(c3o2)C2(CCCCC2)NC(=O)N4)C1` (stereo not drawn) [Example 199, 5-Chloro-2-(3-methoxypyrrolidine-1-carbonyl)-7,8-dihydro-6H-spiro[[1,3]oxazolo[5,4-f]quinazoline-9,1′-cyclohexane]-7-one], for which the IC50 fell in the range of 10 to 100 nM.
